The results in this text go back to paper PMC5700166.

Only a part is listed here, and it is no random draw. For some of these results: The list includes weakly bound sequences.

Common to all, as to test: protein-binding microarray (PBM)
Common to all, as to conditions: PBM: ~300 nM protein, 6 mM HEPES pH 7.8, 80 mM KCl, 0.5 mM EDTA, 0.5 mM EGTA, 6% glycerol, 35 ng/ul poly-dIdC, 1% milk, 1 h, room temperature; Ap Aiptasia and Nv Nematostella (sea anemones) / Co Capsaspora / Aq Amphimedon (sponge) / Dm Drosophila / Hu human; RHD is the Rel homology domain; high values mean tight binding; most listed sequences are background and not binding sites; double strand, one strand shown

One assay addresses T1, GST-Ap-NF-kB RHD (UniProt A0A913YAJ5).
T1 sequence: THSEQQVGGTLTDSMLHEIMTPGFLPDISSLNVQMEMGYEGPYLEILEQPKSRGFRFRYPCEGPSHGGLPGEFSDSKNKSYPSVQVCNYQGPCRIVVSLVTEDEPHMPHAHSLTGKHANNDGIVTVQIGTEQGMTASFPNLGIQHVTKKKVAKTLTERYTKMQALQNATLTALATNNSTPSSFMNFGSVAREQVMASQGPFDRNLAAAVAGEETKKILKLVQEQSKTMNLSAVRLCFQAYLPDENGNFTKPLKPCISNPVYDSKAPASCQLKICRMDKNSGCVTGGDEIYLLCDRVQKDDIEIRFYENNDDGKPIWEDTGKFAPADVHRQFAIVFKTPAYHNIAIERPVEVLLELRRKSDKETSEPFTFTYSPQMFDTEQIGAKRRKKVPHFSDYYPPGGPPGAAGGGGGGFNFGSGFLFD

For another assay, the target named is T2, GST-Co-NF-kB (UniProt F1ARL5).
T2 sequence: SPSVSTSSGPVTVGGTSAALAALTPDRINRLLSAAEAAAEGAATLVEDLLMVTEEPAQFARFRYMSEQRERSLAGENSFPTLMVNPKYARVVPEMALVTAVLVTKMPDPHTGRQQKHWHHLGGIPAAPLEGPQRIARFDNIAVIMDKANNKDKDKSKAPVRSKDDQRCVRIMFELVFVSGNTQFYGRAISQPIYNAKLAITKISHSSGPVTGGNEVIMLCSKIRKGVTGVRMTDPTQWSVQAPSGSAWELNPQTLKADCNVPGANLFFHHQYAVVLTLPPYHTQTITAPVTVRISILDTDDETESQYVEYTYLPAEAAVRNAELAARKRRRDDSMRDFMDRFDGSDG

A further assay concerns the target T3, GST-Aq-NF-kB (UniProt A9Y5G7).
T3 sequence: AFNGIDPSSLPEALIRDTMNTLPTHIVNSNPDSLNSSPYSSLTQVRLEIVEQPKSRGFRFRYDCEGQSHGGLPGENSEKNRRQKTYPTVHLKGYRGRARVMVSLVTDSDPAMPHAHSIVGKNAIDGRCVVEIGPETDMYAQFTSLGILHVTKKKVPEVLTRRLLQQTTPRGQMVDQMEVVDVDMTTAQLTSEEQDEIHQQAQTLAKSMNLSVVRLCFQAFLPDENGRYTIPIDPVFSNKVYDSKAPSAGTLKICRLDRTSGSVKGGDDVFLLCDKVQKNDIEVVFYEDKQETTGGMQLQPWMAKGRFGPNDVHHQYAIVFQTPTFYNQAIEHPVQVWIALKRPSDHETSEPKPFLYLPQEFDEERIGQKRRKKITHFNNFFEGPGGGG

Assay [1] concerns the target T4, GST-Nv-NF-kB (Cys allele) (UniProt E5G601).
T4 sequence: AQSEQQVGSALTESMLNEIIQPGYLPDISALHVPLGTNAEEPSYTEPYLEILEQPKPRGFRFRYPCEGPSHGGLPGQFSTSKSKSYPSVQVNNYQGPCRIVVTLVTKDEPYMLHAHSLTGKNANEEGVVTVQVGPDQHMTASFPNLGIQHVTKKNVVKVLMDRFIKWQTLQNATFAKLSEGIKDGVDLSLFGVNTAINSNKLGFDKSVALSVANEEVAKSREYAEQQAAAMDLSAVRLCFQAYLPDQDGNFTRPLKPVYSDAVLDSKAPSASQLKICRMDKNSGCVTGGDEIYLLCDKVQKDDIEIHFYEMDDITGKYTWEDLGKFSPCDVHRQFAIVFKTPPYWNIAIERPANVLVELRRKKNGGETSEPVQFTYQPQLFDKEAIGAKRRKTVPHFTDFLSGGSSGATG

The next assay concerns the target T5, GST-Dm-Relish (UniProt Q94527).
T5 sequence: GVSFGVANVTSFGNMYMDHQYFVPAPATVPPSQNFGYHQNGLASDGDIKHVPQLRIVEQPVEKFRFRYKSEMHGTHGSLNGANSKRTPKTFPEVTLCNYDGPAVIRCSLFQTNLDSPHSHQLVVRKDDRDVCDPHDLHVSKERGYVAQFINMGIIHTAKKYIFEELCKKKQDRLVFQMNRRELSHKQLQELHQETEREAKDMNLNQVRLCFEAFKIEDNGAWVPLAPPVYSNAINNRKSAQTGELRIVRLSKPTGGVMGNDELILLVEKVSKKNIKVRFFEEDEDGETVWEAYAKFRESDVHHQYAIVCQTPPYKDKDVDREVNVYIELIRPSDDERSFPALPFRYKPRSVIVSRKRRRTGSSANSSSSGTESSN

Take “CCGATTAACATCAGGGGAGTTCATGATGTTAATCGGGTCTTGATTCGCTTGACGCTGCTG”: the values for the binding signal with GST-Ap-NF-kB RHD, in the assay with GST-Co-NF-kB and with GST-Aq-NF-kB were 5.95 z-score, 3.54 z-score and 3.96 z-score, respectively.
For “CCGATTAACATCAGTTTTCCCCATGATGTTAATCGGGTCTTGATTCGCTTGACGCTGCTG”, the binding signal in the assay with GST-Ap-NF-kB RHD stood at 6.49 z-score; with GST-Co-NF-kB, 9.45 z-score; in the assay with GST-Aq-NF-kB, 4.82 z-score.
On the same counts, the results for “CCGATTAACATCACGAAAGTCCCTGATGTTAATCGGGTCTTGATTCGCTTGACGCTGCTG” are 6.26 z-score, 0.217 z-score and 5.78 z-score.
Turning to “CCGATTAACATCAAGAAAGTCCCTGATGTTAATCGGGTCTTGATTCGCTTGACGCTGCTG”, the binding signal amounted to 7.56 z-score with GST-Ap-NF-kB RHD, 1.38 z-score in the assay with GST-Co-NF-kB and 6.74 z-score with GST-Aq-NF-kB.
On the same counts, the results for “CCGATTAACATCAAGACTTTCCCTGATGTTAATCGGGTCTTGATTCGCTTGACGCTGCTG” are 4.06 z-score, 2.92 z-score and 6.09 z-score.
For the sequence “CCGATTAACATCAAGGGAATGCCTGATGTTAATCGGGTCTTGATTCGCTTGACGCTGCTG”, the figures for the binding signal in the assay with GST-Ap-NF-kB RHD, in the assay with GST-Co-NF-kB and with GST-Aq-NF-kB were 2.72 z-score, 1.06 z-score and 4.2 z-score, respectively.
For “CCGATTAACATCAAAAATCCCCCTGATGTTAATCGGGTCTTGATTCGCTTGACGCTGCTG”, the binding signal with GST-Ap-NF-kB RHD was 11.1 z-score; in assay [1] it was 11.4 z-score; with GST-Dm-Relish, 10.1 z-score; with GST-Aq-NF-kB, 9.28 z-score.
Take “CCGATTAACATCAAAACATCCCCTGATGTTAATCGGGTCTTGATTCGCTTGACGCTGCTG”: the binding signal is 6.41 z-score with GST-Ap-NF-kB RHD, 4.63 z-score with GST-Co-NF-kB and 7.07 z-score with GST-Aq-NF-kB.
On the same counts, the results for “CCGATTAACATCAGGATCCCCCCTGATGTTAATCGGGTCTTGATTCGCTTGACGCTGCTG” are 8.27 z-score, 5.45 z-score and 6.39 z-score.
On the same counts, the results for “CCGATTAACATCAGGGGAGGTACTGATGTTAATCGGGTCTTGATTCGCTTGACGCTGCTG” are 4.21 z-score, 3.96 z-score and 4.35 z-score.
Consider “CCGATTAACATCATACTTCCCCATGATGTTAATCGGGTCTTGATTCGCTTGACGCTGCTG”, for which the binding signal with GST-Ap-NF-kB RHD was 3.97 z-score; in the assay with GST-Co-NF-kB, 4.69 z-score; in the assay with GST-Dm-Relish it was 3.18 z-score; in the assay with GST-Aq-NF-kB it was 3.58 z-score.
For “CCGATTAACATCACAAAACTCCCTGATGTTAATCGGGTCTTGATTCGCTTGACGCTGCTG”, the binding signal in the assay with GST-Ap-NF-kB RHD turned out to be 4.94 z-score; in the assay with GST-Dm-Relish it was 5.41 z-score; with GST-Aq-NF-kB, 6.32 z-score.
“CCGATTAACATCAAAAACCCCCGTGATGTTAATCGGGTCTTGATTCGCTTGACGCTGCTG”: the binding signal in the assay with GST-Ap-NF-kB RHD was found to be 9.67 z-score; with GST-Co-NF-kB, 4.41 z-score; with GST-Dm-Relish, 10.8 z-score; with GST-Aq-NF-kB, 8.35 z-score.
Take “CCGATTAACATCAAAGAGGAGTCTGATGTTAATCGGGTCTTGATTCGCTTGACGCTGCTG”: the binding signal with GST-Ap-NF-kB RHD was -0.112 z-score; with GST-Co-NF-kB, 0.441 z-score; in the assay with GST-Dm-Relish, -0.611 z-score; with GST-Aq-NF-kB, -0.517 z-score.
For “CCGATTAACATCACGGGGGGGGATGATGTTAATCGGGTCTTGATTCGCTTGACGCTGCTG”, the binding signal was found to be 6.27 z-score with GST-Ap-NF-kB RHD, 7.62 z-score with GST-Co-NF-kB and 5.29 z-score with GST-Aq-NF-kB.
